{"source": "the supplement of paper PMC10670038", "note": "Structures can show the parent of a compound that is named as a salt. ± gives the standard deviation of the averaged measurements. Over roughly 2,000 compounds, “relative cell viability vs DMSO, compound alone” has its median near 1.1; the lowest 2% begin near 0.29. This is one part of the list."}
{"test_system": "TE10", "experiment": "relative cell viability vs DMSO, compound alone (fraction); TE10 is an esophageal squamous carcinoma line; higher = less cytotoxic", "details": "2 µM; 48 h", "procedure": "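TE10 ESCC cells (1,000/well, 384-well plates) were treated with Selleck bioactive library compounds at 2 uM alone for 48 h. Viability was read by CellTiter-Glo and expressed relative to DMSO wells. Two technical replicates (A, B).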"}
{"smiles": "CC(C)(O)c1ccccc1CC[C@@H](SCC1(CC(=O)O)CC1)c1cccc(/C=C/c2ccc3ccc(Cl)cc3n2)c1", "note": "[Montelukast Sodium]", "relative cell viability": "1.06 ± 0.072"}
{"smiles": "O=C1NC(=O)C(=Cc2ccc(-c3ccc(F)cc3)o2)S1", "note": "(stereo in doubt)", "relative cell viability": "0.983 ± 0.019"}
{"smiles": "C#CCC(Cc1cnc2nc(N)nc(N)c2n1)c1ccc(C(=O)N[C@@H](CCC(=O)O)C(=O)O)cc1", "note": "(some centres undefined) [Pralatrexate]", "relative cell viability": "0.1336 ± 0.00088"}
{"smiles": "O=C(C[S+]([O-])Cc1ccco1)NC/C=C\\COc1cc(CN2CCCCC2)ccn1", "note": "(centres undefined) [Lafutidine]", "relative cell viability": "1.07 ± 0.045"}
{"smiles": "CCN(CC)CCCC(C)Nc1nc(C)cc(Nc2ccc3nc(C)cc(N)c3c2)n1", "note": "(centres undefined)", "relative cell viability": "1.11 ± 0.024"}
{"smiles": "O=C(c1ccccc1)c1ccc2n1CCC2C(=O)O", "note": "(centres undefined) [Ketorolac]", "relative cell viability": "1.078 ± 0.0035"}
{"smiles": "COc1ccc(S(=O)(=O)N(CCO)c2ccccc2CN(C)C/C=C/c2ccc(Cl)cc2)cc1", "note": "[KN-93 Phosphate]", "relative cell viability": "0.984 ± 0.051"}
{"smiles": "O=C(Nc1ccccc1Br)N[C@@H]1CCN(c2ccc(C(F)(F)F)cn2)C1", "relative cell viability": "1.02 ± 0.034"}
{"smiles": "O=C(NOCC(O)CO)c1cc(Br)c(F)c(F)c1Nc1ccc(I)cc1F", "note": "(centres undefined)", "relative cell viability": "0.843 ± 0.018"}
{"smiles": "CN(C)CC(c1ccc(O)cc1)C1(O)CCCCC1", "note": "(centres undefined) [Desvenlafaxine Succinate]", "relative cell viability": "1.05 ± 0.038"}
{"smiles": "CN(C)CC(c1ccc(O)cc1)C1(O)CCCCC1", "note": "(centres undefined) [Desvenlafaxine]", "relative cell viability": "1.115 ± 0.0085"}
{"smiles": "CN(C)Cc1ccc(S(=O)(=O)n2ccc(/C=C/C(=O)NO)c2)cc1", "note": "[Resminostat]", "relative cell viability": "0.908 ± 0.028"}
{"smiles": "Nc1ncnc2n[nH]c(Nc3ccc(F)cc3)c12", "relative cell viability": "1.12 ± 0.026"}
{"smiles": "CCn1cc(NC(=S)Nc2cc(Cl)ccc2OC)c(C(N)=O)n1", "relative cell viability": "1.19 ± 0.041"}
{"smiles": "CC[C@H](C)C[C@H](C)CCCCCCCCC(=O)N[C@H]1C[C@@H](O)[C@@H](NCCN)NC(=O)[C@@H]2[C@@H](O)CCN2C(=O)[C@H]([C@H](O)CCN)NC(=O)[C@H]([C@H](O)[C@@H](O)c2ccc(O)cc2)NC(=O)[C@@H]2C[C@@H](O)CN2C(=O)[C@H]([C@@H](C)O)NC1=O", "note": "[Caspofungin Acetate]", "relative cell viability": "1.1 ± 0.037"}
{"smiles": "c1ccc(CN(CC2=NCCN2)c2ccccc2)cc1", "note": "[Antazoline HCl]", "relative cell viability": "1.05 ± 0.012"}
{"smiles": "CN(C)CC/C=C1/c2ccccc2COc2ccc(CC(=O)O)cc21", "note": "[Olopatadine HCl]", "relative cell viability": "1.11 ± 0.081"}
{"smiles": "Cc1cc(OCc2nnc(SC3CCCC3)n2-c2cccnc2)ccc1-c1ccc(S(C)(=O)=O)cc1", "relative cell viability": "1.11 ± 0.061"}
{"smiles": "CNC(=O)c1ccc(C)c(-n2c(C)cc(OCc3ccc(F)cc3F)c(Br)c2=O)c1", "relative cell viability": "1.09 ± 0.052"}
{"smiles": "CCCCCCCCCCCC[N+](C)(C)CCOc1ccccc1", "note": "[Domiphen Bromide]", "relative cell viability": "1.1 ± 0.097"}
{"smiles": "Cc1ccc(-n2nc(C(C)(C)C)cc2NC(=O)Nc2ccc(OCCN3CCOCC3)c3ccccc23)cc1", "note": "[BIRB 796 (Doramapimod)]", "relative cell viability": "0.857 ± 0.021"}
{"smiles": "CCCOc1ccc(C(=O)OCCN(CC)CC)cc1N", "note": "[Proparacaine HCl]", "relative cell viability": "0.716 ± 0.03"}
{"smiles": "CCN(CC)CCCCNc1ncc2cc(-c3cc(OC)cc(OC)c3)c(NC(=O)NC(C)(C)C)nc2n1", "relative cell viability": "1.23 ± 0.029"}
{"smiles": "C=CS(=O)(=O)NC1CCN(C(=O)CNc2cc(I)c(Cl)cc2OC)CC1", "note": "[K-Ras(G12C) inhibitor 9]", "relative cell viability": "1.13 ± 0.012"}
{"smiles": "CC[C@@H](CO)NCCN[C@@H](CC)CO", "note": "[Ethambutol HCl]", "relative cell viability": "1.14 ± 0.076"}
{"smiles": "O=C(/C=C/c1ccc(O)c(O)c1)O[C@@H]1C[C@](O)(C(=O)O)C[C@@H](O)[C@H]1O", "note": "[Chlorogenic Acid]", "relative cell viability": "1.085 ± 0.0086"}
{"smiles": "C[C@@H]1COC(Nc2ccc3ncnc(Nc4ccc(OCc5nccs5)c(Cl)c4)c3c2)=N1", "note": "[Varlitinib]", "relative cell viability": "1.11 ± 0.045"}
{"smiles": "CC(=O)OCC(=O)[C@H]1CC[C@H]2[C@@H]3CCC4=CC(=O)CC[C@]4(C)[C@H]3CC[C@]12C", "note": "[Deoxycorticosterone acetate]", "relative cell viability": "1.05 ± 0.028"}
{"smiles": "Oc1cccc(-c2nc(N3CCOCC3)c3oc4ncccc4c3n2)c1", "relative cell viability": "0.472 ± 0.063"}
{"smiles": "Cn1cc(-c2ccc3c(c2)CCN3C(=O)Cc2cccc(C(F)(F)F)c2)c2c(N)ncnc21", "relative cell viability": "0.945 ± 0.17"}
{"smiles": "C#C[C@]1(O)CC[C@H]2[C@@H]3CCC4=CC(=O)CC[C@@H]4[C@H]3CC[C@@]21CC", "note": "[Levonorgestrel]", "relative cell viability": "1.1 ± 0.046"}
{"smiles": "COc1ccc(-c2ccc3c(N4CCOCC4)nc(N4C[C@@H](C)O[C@@H](C)C4)nc3n2)cc1CO", "relative cell viability": "0.43 ± 0.059"}
{"smiles": "OC(CN1CCN(c2cccc(Cl)c2)CC1)C(c1ccccc1)c1ccccc1", "note": "(centres undefined)", "relative cell viability": "1.02 ± 0.061"}
{"smiles": "COc1cc(OC)c(/C=C/S(=O)(=O)Cc2ccc(OC)c(NCC(=O)O)c2)c(OC)c1", "relative cell viability": "0.661 ± 0.021"}
{"smiles": "CC(C)c1cc2c(N3CCN(C4=NCC(C)(C)S4)CC3)ncnc2s1", "note": "[MI-3 (Menin-MLL Inhibitor)]", "relative cell viability": "0.9593 ± 0.0084"}
{"smiles": "CC/C(=C(/CC)c1ccc(O)cc1)c1ccc(O)cc1", "note": "[Diethylstilbestrol]", "relative cell viability": "0.991 ± 0.13"}
{"smiles": "CC1=C(/C=C/C(C)=C/C=C/C(C)=C\\C(=O)O)C(C)(C)CCC1", "note": "[Isotretinoin]", "relative cell viability": "0.836 ± 0.072"}
{"smiles": "NC(N)=Nc1nc(CSCC/C(N)=N/S(N)(=O)=O)cs1", "note": "[Famotidine]", "relative cell viability": "1.09 ± 0.029"}
{"smiles": "CCCCCCCc1ccc(CCc2cccc(O)c2C(=O)O)cc1", "relative cell viability": "1.04 ± 0.044"}
